From PMC8760265
These are yes or no findings as the source states them, for the method shown. Binding seen in cells or lysates may run through a third protein. Some entries that bind do so weakly or less than the wild type.

The chains behind the UniProt entries cited, without tags or fusion partners.
UniProt Q99814: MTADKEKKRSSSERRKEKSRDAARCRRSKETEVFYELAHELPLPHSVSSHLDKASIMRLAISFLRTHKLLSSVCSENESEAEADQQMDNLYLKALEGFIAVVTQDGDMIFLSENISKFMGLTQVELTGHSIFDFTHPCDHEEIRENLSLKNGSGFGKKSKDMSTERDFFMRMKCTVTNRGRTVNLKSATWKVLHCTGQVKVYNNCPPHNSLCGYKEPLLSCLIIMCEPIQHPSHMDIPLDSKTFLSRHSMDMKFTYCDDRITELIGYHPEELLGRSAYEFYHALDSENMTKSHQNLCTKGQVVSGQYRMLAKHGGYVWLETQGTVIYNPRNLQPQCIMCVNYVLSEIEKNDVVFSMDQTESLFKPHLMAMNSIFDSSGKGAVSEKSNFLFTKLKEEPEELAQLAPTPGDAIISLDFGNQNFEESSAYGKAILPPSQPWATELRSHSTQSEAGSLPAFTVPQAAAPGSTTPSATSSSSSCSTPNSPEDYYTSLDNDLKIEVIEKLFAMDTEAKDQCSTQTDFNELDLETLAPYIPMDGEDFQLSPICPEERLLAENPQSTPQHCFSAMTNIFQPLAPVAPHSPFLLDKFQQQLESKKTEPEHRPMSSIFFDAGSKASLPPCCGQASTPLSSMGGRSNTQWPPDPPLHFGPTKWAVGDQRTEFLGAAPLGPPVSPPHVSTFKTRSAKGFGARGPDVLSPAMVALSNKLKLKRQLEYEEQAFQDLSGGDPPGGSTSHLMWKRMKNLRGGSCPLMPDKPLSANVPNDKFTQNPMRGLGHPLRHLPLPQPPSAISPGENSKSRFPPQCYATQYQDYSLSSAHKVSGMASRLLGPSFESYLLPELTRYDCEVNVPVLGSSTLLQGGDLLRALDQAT
UniProt P50750: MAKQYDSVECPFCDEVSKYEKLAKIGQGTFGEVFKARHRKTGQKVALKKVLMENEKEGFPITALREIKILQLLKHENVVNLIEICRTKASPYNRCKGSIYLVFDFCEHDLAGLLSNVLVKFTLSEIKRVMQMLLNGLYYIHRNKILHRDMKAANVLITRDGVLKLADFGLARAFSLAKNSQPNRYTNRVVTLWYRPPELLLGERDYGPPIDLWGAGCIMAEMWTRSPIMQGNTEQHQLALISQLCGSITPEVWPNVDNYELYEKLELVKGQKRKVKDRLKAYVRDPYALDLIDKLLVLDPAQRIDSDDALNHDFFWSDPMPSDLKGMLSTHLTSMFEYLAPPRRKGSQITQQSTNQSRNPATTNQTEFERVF
UniProt Q13263: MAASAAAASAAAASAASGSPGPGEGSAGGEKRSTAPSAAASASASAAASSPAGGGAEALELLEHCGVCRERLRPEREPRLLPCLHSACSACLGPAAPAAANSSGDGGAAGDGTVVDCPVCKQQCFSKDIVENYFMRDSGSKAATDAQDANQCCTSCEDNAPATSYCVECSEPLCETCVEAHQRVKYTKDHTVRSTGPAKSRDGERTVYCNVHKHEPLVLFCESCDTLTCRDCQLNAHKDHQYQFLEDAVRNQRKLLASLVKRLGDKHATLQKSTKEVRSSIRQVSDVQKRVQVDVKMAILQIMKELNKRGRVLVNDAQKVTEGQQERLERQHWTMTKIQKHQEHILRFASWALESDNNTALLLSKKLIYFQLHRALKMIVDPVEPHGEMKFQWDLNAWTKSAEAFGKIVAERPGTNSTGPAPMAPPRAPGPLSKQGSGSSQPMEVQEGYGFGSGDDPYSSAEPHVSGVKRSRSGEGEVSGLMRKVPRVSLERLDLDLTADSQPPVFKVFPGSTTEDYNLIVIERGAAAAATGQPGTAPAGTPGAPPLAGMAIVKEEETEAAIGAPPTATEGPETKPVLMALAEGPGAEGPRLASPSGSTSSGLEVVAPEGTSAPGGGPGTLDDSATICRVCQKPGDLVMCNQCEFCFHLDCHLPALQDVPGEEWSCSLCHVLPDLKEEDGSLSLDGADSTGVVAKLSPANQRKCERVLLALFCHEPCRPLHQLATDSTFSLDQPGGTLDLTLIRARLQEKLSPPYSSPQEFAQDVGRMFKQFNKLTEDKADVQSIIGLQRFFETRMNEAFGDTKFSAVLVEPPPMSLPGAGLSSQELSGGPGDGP
UniProt P78527: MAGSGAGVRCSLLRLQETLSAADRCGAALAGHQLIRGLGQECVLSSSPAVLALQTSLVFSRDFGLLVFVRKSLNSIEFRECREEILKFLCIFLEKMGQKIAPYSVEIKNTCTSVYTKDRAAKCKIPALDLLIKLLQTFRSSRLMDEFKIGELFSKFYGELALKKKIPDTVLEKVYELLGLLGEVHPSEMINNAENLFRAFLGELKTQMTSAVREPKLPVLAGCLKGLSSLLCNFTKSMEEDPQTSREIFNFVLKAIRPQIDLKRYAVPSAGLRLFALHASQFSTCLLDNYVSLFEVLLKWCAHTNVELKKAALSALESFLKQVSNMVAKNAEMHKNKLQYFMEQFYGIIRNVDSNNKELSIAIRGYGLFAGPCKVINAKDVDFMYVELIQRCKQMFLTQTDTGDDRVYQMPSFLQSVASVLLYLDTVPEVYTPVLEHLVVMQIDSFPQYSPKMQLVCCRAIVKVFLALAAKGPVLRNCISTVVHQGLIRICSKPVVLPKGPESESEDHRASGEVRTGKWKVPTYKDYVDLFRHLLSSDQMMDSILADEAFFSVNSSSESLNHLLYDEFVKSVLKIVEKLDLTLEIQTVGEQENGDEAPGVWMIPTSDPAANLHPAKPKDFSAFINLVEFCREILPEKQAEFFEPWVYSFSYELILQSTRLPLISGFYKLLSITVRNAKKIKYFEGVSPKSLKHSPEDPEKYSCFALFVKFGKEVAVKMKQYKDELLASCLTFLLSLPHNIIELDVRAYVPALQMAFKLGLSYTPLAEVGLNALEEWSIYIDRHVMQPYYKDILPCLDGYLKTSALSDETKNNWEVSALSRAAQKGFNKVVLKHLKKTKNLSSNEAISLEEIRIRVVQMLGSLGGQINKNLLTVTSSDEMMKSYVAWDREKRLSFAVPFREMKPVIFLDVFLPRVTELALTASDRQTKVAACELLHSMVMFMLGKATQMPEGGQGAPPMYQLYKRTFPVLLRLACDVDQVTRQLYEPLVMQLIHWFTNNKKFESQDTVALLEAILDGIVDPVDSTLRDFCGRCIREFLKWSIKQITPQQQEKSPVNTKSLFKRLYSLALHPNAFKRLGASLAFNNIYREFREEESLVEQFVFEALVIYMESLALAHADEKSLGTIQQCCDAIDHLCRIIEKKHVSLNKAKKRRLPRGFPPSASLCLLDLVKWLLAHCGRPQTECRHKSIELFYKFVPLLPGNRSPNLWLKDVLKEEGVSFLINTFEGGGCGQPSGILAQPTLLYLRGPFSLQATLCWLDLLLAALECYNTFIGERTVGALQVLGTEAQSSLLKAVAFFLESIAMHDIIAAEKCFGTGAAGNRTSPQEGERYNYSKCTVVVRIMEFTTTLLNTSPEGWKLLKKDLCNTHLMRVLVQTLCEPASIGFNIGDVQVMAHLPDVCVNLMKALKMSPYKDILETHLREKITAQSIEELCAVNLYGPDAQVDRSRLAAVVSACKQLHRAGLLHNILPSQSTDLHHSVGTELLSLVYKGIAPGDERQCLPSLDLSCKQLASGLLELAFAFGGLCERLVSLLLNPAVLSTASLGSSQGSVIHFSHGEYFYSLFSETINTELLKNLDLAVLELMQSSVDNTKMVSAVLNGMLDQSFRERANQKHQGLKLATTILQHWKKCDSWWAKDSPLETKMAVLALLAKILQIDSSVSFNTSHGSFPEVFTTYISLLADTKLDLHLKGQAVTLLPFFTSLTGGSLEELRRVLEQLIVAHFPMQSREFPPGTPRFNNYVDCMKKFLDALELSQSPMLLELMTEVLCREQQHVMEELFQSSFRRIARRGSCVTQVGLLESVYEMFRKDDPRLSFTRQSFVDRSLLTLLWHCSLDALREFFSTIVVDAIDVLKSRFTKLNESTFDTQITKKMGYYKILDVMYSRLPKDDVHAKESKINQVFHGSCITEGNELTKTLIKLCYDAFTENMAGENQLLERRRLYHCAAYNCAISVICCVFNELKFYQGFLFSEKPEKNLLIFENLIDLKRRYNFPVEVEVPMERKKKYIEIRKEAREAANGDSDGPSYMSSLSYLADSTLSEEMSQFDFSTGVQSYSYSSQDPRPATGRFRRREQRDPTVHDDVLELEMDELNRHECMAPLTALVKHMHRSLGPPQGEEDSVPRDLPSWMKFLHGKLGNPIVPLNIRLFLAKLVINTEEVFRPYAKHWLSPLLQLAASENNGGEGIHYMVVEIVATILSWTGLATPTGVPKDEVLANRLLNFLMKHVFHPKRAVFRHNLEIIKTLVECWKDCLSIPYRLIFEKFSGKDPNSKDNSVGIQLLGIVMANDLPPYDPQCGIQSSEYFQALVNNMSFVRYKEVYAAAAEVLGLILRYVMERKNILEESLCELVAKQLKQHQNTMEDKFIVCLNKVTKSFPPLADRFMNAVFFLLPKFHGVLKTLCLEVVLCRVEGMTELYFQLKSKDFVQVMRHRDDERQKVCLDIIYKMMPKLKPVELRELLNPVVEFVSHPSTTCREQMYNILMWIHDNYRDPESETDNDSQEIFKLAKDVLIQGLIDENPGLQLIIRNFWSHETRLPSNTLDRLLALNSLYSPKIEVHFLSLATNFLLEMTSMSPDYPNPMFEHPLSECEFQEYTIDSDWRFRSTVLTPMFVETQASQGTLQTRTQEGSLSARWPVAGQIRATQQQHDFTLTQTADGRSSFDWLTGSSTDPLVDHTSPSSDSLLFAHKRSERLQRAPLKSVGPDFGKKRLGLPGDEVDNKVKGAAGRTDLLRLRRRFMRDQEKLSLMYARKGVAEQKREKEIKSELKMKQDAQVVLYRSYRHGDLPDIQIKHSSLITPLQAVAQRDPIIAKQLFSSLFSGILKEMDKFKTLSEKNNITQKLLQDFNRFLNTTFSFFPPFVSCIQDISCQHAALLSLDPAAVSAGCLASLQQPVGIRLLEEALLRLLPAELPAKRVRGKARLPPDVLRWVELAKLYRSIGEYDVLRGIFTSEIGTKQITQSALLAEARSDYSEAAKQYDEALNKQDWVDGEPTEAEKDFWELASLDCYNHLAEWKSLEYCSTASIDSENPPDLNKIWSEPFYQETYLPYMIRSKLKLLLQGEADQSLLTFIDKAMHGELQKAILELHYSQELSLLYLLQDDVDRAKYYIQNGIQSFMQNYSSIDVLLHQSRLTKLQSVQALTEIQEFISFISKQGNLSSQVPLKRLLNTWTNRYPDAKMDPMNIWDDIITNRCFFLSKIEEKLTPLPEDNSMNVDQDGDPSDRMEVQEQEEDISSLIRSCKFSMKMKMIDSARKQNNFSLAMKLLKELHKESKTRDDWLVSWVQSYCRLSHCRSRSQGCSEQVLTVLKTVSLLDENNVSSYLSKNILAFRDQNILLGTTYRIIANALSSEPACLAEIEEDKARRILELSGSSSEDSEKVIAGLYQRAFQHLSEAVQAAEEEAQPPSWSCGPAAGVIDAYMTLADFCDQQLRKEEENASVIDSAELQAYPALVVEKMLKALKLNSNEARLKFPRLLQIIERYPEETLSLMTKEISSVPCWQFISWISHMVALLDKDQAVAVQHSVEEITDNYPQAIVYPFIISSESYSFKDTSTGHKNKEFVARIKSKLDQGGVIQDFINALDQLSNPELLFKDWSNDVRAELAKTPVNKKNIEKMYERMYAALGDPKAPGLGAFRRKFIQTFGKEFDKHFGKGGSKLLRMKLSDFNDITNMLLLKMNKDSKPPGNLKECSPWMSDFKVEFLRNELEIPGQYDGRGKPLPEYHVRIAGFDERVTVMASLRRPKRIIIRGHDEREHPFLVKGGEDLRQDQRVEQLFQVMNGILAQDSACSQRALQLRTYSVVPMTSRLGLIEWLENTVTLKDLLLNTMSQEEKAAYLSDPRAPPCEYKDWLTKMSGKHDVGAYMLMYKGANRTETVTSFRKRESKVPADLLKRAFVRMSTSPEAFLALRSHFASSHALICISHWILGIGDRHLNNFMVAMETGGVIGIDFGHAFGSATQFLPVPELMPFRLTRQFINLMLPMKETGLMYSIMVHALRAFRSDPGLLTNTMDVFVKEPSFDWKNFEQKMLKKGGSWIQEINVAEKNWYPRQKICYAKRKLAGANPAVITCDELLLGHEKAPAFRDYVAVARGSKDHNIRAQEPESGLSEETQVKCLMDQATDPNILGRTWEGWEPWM

How the values were obtained:
FLAG-HIF-2α = FLAG-HIF-2α (UniProt Q99814); test: co-IP; MDA-MB-231 cells transfected with FLAG-HIF-2α vector, 1% O2 for 8 h; IP with FLAG Ab or IgG; endogenous partners by immunoblot
[1] = biological target: Hypoxia-inducible factor-1α (HIF-1α) (human (endogenous in MDA-MB-231)) (UniProt Q16665); test: co-IP; endogenous proteins, whole cell lysate of MDA-MB-231 cells (also NTC and HIF-1α/HIF-2α double-knockdown subclones) exposed to 1% O2 for 8 h; IP with HIF-1α or TRIM28 Ab or IgG; lysis buffer 150 mM NaCl, 50 mM HEPES pH 7.9, 1% IGEPAL; immunoblot
[2] = biological target: Hypoxia-inducible factor-1α (HIF-1α) (human (endogenous in MDA-MB-231)) (UniProt Q16665); test: condition: only cells exposed to 20% O2 (no hypoxia); co-IP; endogenous proteins, whole cell lysate of MDA-MB-231 cells exposed to 20% O2 for 8 h; IP with HIF-1α Ab; immunoblot
FLAG-HIF-1α (531–826) = FLAG-HIF-1α (531–826) (UniProt Q16665); test: co-IP; two tagged proteins co-expressed in MDA-MB-231 cells; IP with FLAG Ab (Fig. 1F, 1G; antibody not told for Supplementary Fig. 1D); immunoblot
FLAG-CDK9 = FLAG-CDK9 (UniProt P50750); test: co-IP; SUM159 cells co-transfected with FLAG-CDK9 and HA-tagged TRIM28-WT, -S824A or -S824D; IP with FLAG Ab or HA Ab; immunoblot
[3] = biological target: Tripartite motif containing protein 28 (TRIM28) (human (endogenous in MDA-MB-231 and SUM159)) (UniProt Q13263); test: co-IP; endogenous proteins, whole cell lysate of MDA-MB-231 cells (also NTC and HIF-1α/HIF-2α double-knockdown subclones) exposed to 1% O2 for 8 h; IP with HIF-1α or TRIM28 Ab or IgG; lysis buffer 150 mM NaCl, 50 mM HEPES pH 7.9, 1% IGEPAL; immunoblot
[4] = biological target: CDK9 (endogenous) (human (endogenous in SUM159)) (UniProt P50750); test: co-IP; endogenous proteins, SUM159 cells exposed to 20% or 1% O2 for 8 h; IP with KU70, KU86, CDK9, total TRIM28 or p-S824-TRIM28 Ab; immunoblot

| binding (FLAG-HIF-2α) | binding [1] | binding [2] | Substance | other results |
| --- | --- | --- | --- | --- |
| binds | binds | no binding | DNA-dependent protein kinase catalytic subunit (DNA-PKcs) (from UniProt P78527 1-4128) |  |
|  |  |  | HA-tagged TRIM28 (wild type) (from UniProt Q13263 1-835) | binding (FLAG-HIF-1α (531–826)): binds; binding (FLAG-CDK9): binds |
|  |  |  | Hypoxia-inducible factor-1α (HIF-1α) (from UniProt Q16665 1-826) | binding [3]: binds |
| binds | binds | no binding | KU70 (from UniProt P12956 1-609) |  |
| binds | binds | no binding | KU86 (from UniProt P13010 1-732) |  |
|  |  |  | TRIM28 phosphorylated at S824 (endogenous) (from UniProt Q13263 1-835) | binding [4]: binds |
| binds | binds | no binding | Tripartite motif containing protein 28 (TRIM28) (from UniProt Q13263 1-835) |  |
